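Test compounds were applied to cells in 96-well plates for 48 hours at 5 doses. GI50 is the concentration that inhibits growth by half. At the TGI there is no net growth.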

The subject of the test is NCI-H322M lung. In words: growth of human tumour cells (NCI), 48 h.
On to `CCCCCc1ccc(S(=O)(=O)Nc2cc(-c3csc(NC(=O)CN4CCN(CCO)CC4)n3)ccc2OC)cc1`, for which the GI50 is 1.96 µM and the TGI was 4.59 µM.

Regarding `COc1ccc2c(c1)c(-c1cc(N)n3nc(-c4cn(C)c5ccc(OC)cc45)cc3n1)cn2C`, the GI50 is 1.84 µM and the TGI was found to be 3.61 µM.

On to `O=C(CCCCCCNC(=O)C(O)(O)C(F)(F)F)Nc1ncc(-c2ccccc2)s1`, for which the GI50 is 5.11 µM and the TGI is over 23.5 µM.

`CN1CCN(Cc2ccc(NC(=O)c3cncc(C#Cc4cnc5[nH]ncc5c4)c3)cc2C(F)(F)F)CC1`: the GI50 was 3.86 µM and the TGI worked out at 25.5 µM.

As to `COC[C@]12CC[C@@H](C)[C@H](C)[C@H]1C1=CC[C@@H]3[C@@]4(C)CCCNC(C)(C)[C@@H]4CC[C@@]3(C)[C@]1(C)CC2`, the GI50 was 1.87 µM and the TGI was found to be 3.52 µM.

`O=C1C(c2ccccc2)=C(N2CCc3ccccc32)OC1(Cl)Cl`: the GI50 was 16.3 µM and the TGI was 43.2 µM.

Values taken from PubChem BioAssay (NCI).
